Source: publication PMC4336329 (PLoS ONE, 2015)
About 2,200 (0.71%) of roughly 310,000 compounds showed an effect of 50% or more. The effect is printed as a negative number. Some of the results follow.

What follows are compounds tested against human ether-à-go-go-related gene (hERG) potassium channel (human, UniProt Q12809) (assay: primary screen, population patch clamp on CHO cells stably expressing hERG).
human ether-à-go-go-related gene (hERG) potassium channel, sequence (Q12809 whole entry, looked up): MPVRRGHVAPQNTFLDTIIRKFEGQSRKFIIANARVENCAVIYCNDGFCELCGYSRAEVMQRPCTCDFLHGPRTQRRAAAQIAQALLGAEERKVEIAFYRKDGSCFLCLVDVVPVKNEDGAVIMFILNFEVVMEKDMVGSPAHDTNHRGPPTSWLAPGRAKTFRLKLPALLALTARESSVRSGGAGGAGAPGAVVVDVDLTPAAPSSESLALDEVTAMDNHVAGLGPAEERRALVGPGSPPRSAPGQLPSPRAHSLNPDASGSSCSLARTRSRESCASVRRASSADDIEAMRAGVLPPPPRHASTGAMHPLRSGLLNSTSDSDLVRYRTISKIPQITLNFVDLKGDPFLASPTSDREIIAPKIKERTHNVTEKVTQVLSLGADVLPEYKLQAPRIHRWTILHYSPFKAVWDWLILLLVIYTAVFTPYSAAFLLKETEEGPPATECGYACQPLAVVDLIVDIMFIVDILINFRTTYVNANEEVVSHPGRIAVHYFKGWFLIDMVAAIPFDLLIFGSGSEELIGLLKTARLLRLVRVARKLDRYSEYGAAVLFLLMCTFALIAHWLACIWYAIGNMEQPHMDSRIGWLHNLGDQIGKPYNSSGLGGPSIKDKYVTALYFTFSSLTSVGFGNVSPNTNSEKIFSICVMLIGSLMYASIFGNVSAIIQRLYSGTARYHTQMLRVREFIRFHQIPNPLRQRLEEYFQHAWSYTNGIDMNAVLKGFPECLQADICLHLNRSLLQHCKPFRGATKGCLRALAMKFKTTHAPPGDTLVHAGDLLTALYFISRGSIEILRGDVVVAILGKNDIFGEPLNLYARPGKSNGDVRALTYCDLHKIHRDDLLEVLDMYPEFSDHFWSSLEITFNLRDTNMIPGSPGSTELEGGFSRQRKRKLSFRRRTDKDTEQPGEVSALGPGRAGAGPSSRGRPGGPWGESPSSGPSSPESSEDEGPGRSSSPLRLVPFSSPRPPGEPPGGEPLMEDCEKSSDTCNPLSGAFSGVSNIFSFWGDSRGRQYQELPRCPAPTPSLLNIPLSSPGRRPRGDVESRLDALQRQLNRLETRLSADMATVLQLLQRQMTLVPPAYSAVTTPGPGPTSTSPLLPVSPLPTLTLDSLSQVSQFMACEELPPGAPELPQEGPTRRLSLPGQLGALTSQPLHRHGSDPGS
With `Cc1cc(C)n(-c2nc(-c3ccc(Cl)cc3)cs2)n1` the “hERG current change (%, negative = inhibition) at 1uM” value was 9.13%. With `COCCSc1ccccc1C(=O)Nc1ccc(S(=O)(=O)N2CCOCC2)cc1` the “hERG current change (%, negative = inhibition) at 1uM” value was 8.1%. For `CCCCn1c(N)c(N(CC(C)C)C(=O)c2ccc(N3C(=O)CCC3=O)cc2)c(=O)[nH]c1=O`, the “hERG current change (%, negative = inhibition) at 1uM” value was 13.1%. In the case of `CCN(CC)C(=O)Cn1ccc(NC(C)=O)nc1=O`, the “hERG current change (%, negative = inhibition) at 1uM” value is reported as 5.61%. For `N#CC1=C(N)Oc2c(ccc3cccnc23)C1c1cccnc1` (centres unmarked), the “hERG current change (%, negative = inhibition) at 1uM” value was 8.14%. For `C/C(=N/N1CCN(c2ccccn2)CC1)c1cccc([N+](=O)[O-])c1`, the “hERG current change (%, negative = inhibition) at 1uM” value was 4.06%. For `O=C(OCc1ccc(F)cc1Cl)c1ccccn1`, the “hERG current change (%, negative = inhibition) at 1uM” value was 3.13%. In the case of `CCOc1ccc(NS(=O)(=O)c2ccc(C(=O)NC3CCC(O)CC3)cc2)cc1` (centres unmarked), the “hERG current change (%, negative = inhibition) at 1uM” value is reported as 10%. `O=S(=O)(Nc1ccccc1O)c1ccc(-c2ccccc2)cc1` was tested, and the “hERG current change (%, negative = inhibition) at 1uM” value was 8.2%. `CCOc1ccc(-n2c(SCC(=O)N3CCC(C(=O)O)CC3)nc3ccccc3c2=O)cc1` was tested, and the “hERG current change (%, negative = inhibition) at 1uM” value was 15.4%. With `Cc1ccc(NC2=NCC(=O)N2Cc2ccc3c(c2)OCO3)cc1` the “hERG current change (%, negative = inhibition) at 1uM” value was 0.368%. With `CCCn1c(/C=C/c2cc[n+](C)cc2)nc2ccccc21.[I-]` the “hERG current change (%, negative = inhibition) at 1uM” value was 7.98%. In the case of `Cc1cccc(C(C)C)c1NC(=O)c1c(-c2ccccc2)noc1C`, the “hERG current change (%, negative = inhibition) at 1uM” value is reported as 18.1%. With `CCOC(=O)c1c(C)nc(C(Cl)(Cl)Cl)nc1N` the “hERG current change (%, negative = inhibition) at 1uM” value was 3.58%. For `O=c1[nH]c(=S)n(C2CC2)c(O)c1C=NCC1CCCO1` (centres unmarked), the “hERG current change (%, negative = inhibition) at 1uM” value was 4.61%. In the case of `Cc1ccc(C)c(S(=O)(=O)NCCN2CCOCC2)c1.Cl`, the “hERG current change (%, negative = inhibition) at 1uM” value is reported as 8.25%. For `c1ccc(-n2nnnc2Sc2n[nH]c(-c3ccncc3)n2)cc1`, the “hERG current change (%, negative = inhibition) at 1uM” value was -11.8%. With `CCCc1nc(S(=O)(=O)Cc2ccc(Cl)cc2Cl)n[nH]1` the “hERG current change (%, negative = inhibition) at 1uM” value was 7.72%. For `CCn1nc(C(=O)N2CCc3ccccc32)c2ccccc2c1=O`, the “hERG current change (%, negative = inhibition) at 1uM” value was 13.4%. `c1ccc(N2CCN(c3ccccc3)C2c2cccs2)cc1` was tested, and the “hERG current change (%, negative = inhibition) at 1uM” value was 7.66%. With `CC(C)c1nc2cc(C(=O)N(C)C3CCOCC3)ccc2o1` the “hERG current change (%, negative = inhibition) at 1uM” value was 7.18%. `CC1CCN(C(c2ccc(N(C)C)cc2)c2nnnn2Cc2ccc(F)cc2)CC1` (centres unmarked) was tested, and the “hERG current change (%, negative = inhibition) at 1uM” value was 13%. In the case of `Cc1cccc(N2C(=O)CC(Sc3ccccc3C(=O)O)C2=O)c1` (centres unmarked), the “hERG current change (%, negative = inhibition) at 1uM” value is reported as 13.4%. With `COCCC(=O)N1CCC(Oc2ccc(C(=O)N(C)C(C)c3ccon3)cc2)CC1` (centres unmarked) the “hERG current change (%, negative = inhibition) at 1uM” value was 10.5%. In the case of `CCCCCCCCn1sccc1=O`, the “hERG current change (%, negative = inhibition) at 1uM” value is reported as 3.4%. With `NC(=O)C1CCN(c2oc(/C=C/c3ccc(F)cc3)nc2S(=O)(=O)c2ccccc2)CC1` the “hERG current change (%, negative = inhibition) at 1uM” value was 3.33%. With `O=C(O)CCC(=O)N1CCN(c2nc(-c3ccccc3)c3cc(Br)ccc3n2)CC1` the “hERG current change (%, negative = inhibition) at 1uM” value was 7.25%. In the case of `CC(C)(CO)NC(=O)c1ccc2nc(Cc3cccc(Cl)c3)oc2c1`, the “hERG current change (%, negative = inhibition) at 1uM” value is reported as 10.6%. For `CCOc1ccc(-n2c(SCC(=O)Nc3nccs3)nnc2-c2ccoc2C)cc1`, the “hERG current change (%, negative = inhibition) at 1uM” value was -35.1%. In the case of `CC(C)n1cnnc1SCC(=O)Nc1ccc(N2CCCCC2)cc1`, the “hERG current change (%, negative = inhibition) at 1uM” value is reported as 18%. `CCC(CC)Nc1ccc(C(CC(N)=O)NC(=O)Cc2ccc(Br)cc2)cc1[N+](=O)[O-]` (centres unmarked) was tested, and the “hERG current change (%, negative = inhibition) at 1uM” value was 3.24%. For `CCOc1ccc(N=C(/C(C(=O)C(=O)N2CCOCC2)=C(\O)c2ccccc2)c2ccccc2)cc1`, the “hERG current change (%, negative = inhibition) at 1uM” value was 18.4%. `C=CCn1c(O)c(CN2CCOCC2)c(C)c(C#N)c1=O` was tested, and the “hERG current change (%, negative = inhibition) at 1uM” value was 10.4%. `CCc1ccc(C(=O)/C=C/Nc2ccc(S(=O)(=O)Nc3cnc4ccccc4n3)cc2)cc1` was tested, and the “hERG current change (%, negative = inhibition) at 1uM” value was 16%. In the case of `Cl.O=C(Oc1cccnc1)c1ccco1`, the “hERG current change (%, negative = inhibition) at 1uM” value is reported as 4.52%. With `COc1ccccc1CCNC1C2CC3CC(C2)CC1C3` (centres unmarked) the “hERG current change (%, negative = inhibition) at 1uM” value was -2.24%. For `Cc1cc(C)c(S(=O)(=O)N2CCOC2CNC(=O)C(=O)NCCc2ccc(S(N)(=O)=O)cc2)c(C)c1` (centres unmarked), the “hERG current change (%, negative = inhibition) at 1uM” value was -8.68%. In the case of `O=C(NC(=S)NCCC1=CCCCC1)c1ccc(Br)o1`, the “hERG current change (%, negative = inhibition) at 1uM” value is reported as 15.9%. `CCS(=O)(=O)N1CCCC(C(=O)NCC2CCCO2)C1` (centres unmarked) was tested, and the “hERG current change (%, negative = inhibition) at 1uM” value was 13.2%. With `CCOC(=O)C1=C(C)N=C2SC(C)C(=O)N2C1c1ccc(C(=O)OC)cc1` (centres unmarked) the “hERG current change (%, negative = inhibition) at 1uM” value was 1.25%. For `CCOC(=O)/C(C(N)=NC(C)C)=C(\O)c1ccccc1`, the “hERG current change (%, negative = inhibition) at 1uM” value was 8.52%. For `CCOC(=O)CNc1nc(Cl)nc(Nc2ccc(Cl)cc2)n1`, the “hERG current change (%, negative = inhibition) at 1uM” value was 13.1%. For `CSc1ccc(/C=C(\NC(=O)c2ccccc2)C(=O)NCCN2CCOCC2)cc1`, the “hERG current change (%, negative = inhibition) at 1uM” value was -44.3%. `CCCCc1c(O)n2c(nc3ccccc32)[nH]c1=O` was tested, and the “hERG current change (%, negative = inhibition) at 1uM” value was 15.9%. For `C=CCN(c1cccc(C(F)(F)F)c1)S(=O)(=O)c1cccc(C(=O)OCC(=O)NCCC)c1`, the “hERG current change (%, negative = inhibition) at 1uM” value was 8.97%. In the case of `Cc1ccn(CC(=O)N2CCCC(N3CCN(c4cccc(Cl)c4)CC3)C2)n1` (centres unmarked), the “hERG current change (%, negative = inhibition) at 1uM” value is reported as 4.88%. For `COC(=O)[C@@H](Cc1ccc(O)cc1)NC(=O)[C@H]1CCC(=O)N1C(=O)OCc1ccccc1`, the “hERG current change (%, negative = inhibition) at 1uM” value was 4.43%. With `CCn1c(CSc2nc3ccccc3s2)nnc1SCC(=O)c1ccc(Cl)cc1` the “hERG current change (%, negative = inhibition) at 1uM” value was 8.76%. For `O=C(c1ccccc1F)N(Cc1ccc2c(c1)OCO2)Cc1cc2cc3c(cc2n2nnnc12)OCO3`, the “hERG current change (%, negative = inhibition) at 1uM” value was -0.352%. `O=C(Nc1ccccc1C(=O)N1CCNCC1)c1ccco1` was tested, and the “hERG current change (%, negative = inhibition) at 1uM” value was 2.27%. For `CC1CCCCN1CCCNC(=O)c1cc(Br)c(Br)[nH]1` (centres unmarked), the “hERG current change (%, negative = inhibition) at 1uM” value was -42.1%. For `CO/N=C/C(C#N)=C/c1ccc(OC)cc1`, the “hERG current change (%, negative = inhibition) at 1uM” value was 15.4%. `CCCCNC(=O)Cn1cnc2sc(C)c(S(=O)(=O)N3CCN(c4ccccc4OC)CC3)c2c1=O` was tested, and the “hERG current change (%, negative = inhibition) at 1uM” value was 15%. `Cc1cc(OCC(=O)N(Cc2ccco2)C2CCS(=O)(=O)C2)cc(C)c1Cl` (centres unmarked) was tested, and the “hERG current change (%, negative = inhibition) at 1uM” value was 7.06%. In the case of `CC(=O)Nc1ccccc1Sc1ccc2c3c(cccc13)C(=O)N(c1ccc(C)cc1)C2=O`, the “hERG current change (%, negative = inhibition) at 1uM” value is reported as 9.83%. `O=C1CCC(C(=O)N2CCOCC2)CN1Cc1cccc(C(F)(F)F)c1` (centres unmarked) was tested, and the “hERG current change (%, negative = inhibition) at 1uM” value was 12.8%.
